# Results: the RNAGym collection of RNA variant scans (doi:10.1093/nar/gkz1192)
# The source gives no read counts; variants with many changes may rest on few reads.
# B1: CPEB3 Ribozyme (parent)
# chain: UAACAGGGGGCCACAGCAGAAGCGUUCACGUCGCAGCCCCUGUCAGAUUCUGGUGAAUCUGCGAAUUCUGCUGUAUAUCUC
# Variants of: B1
# Test: self-cleavage, relative activity (ratio to wild type); higher = more cleavage; in vitro, sequencing
# Method in brief: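 Relative activity compares each variant's cleaved/total read fraction with that of the unmutated ribozyme. To get these fractions, barcoded CPEB3 ribozyme libraries from rounds of error-prone PCR were transcribed with T7 RNA polymerase for 5 hours at 37°C and then given 15 min of DNase I treatment before EDTA was added. The RNAs were reverse transcribed with template switching and sequenced on Illumina, and DNA sequencing linked barcodes to variants. A minimum of 5 reads applied, and three batches were averaged.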
row,Variant,self-cleavage
1,C11A U43C A57G,0.29
2,C11A U43G G63A A75U,0.09
3,C11A U48C U66C U72C U74C A75U U78C,0.05
4,C11A U54G U78C,0.06
5,C11G A13C C14A C38A C40U A45U U66A,0
6,C11G A13G U25C,0.33
7,C11G A13G U31C C32U A56G,0.04
8,C11G A13G U41A U74C,0.07
9,C11G A13G U43C A57G U76G,0.24
10,C11G A13G U54C,0.54
11,C11G A13G U78A C81U,0.15
12,C11G A13U A35G U43C U69C,0.08
13,C11G A13U U25C U80C,0.06
14,C11G A13U U48C,0.56
15,C11G A15G A47G,0.51
16,C11G A15G C23G U26C A45C U49A A56G,0.25
17,C11G A15U G52U U78C U80C,0.31
18,C11G A15U U43A,0.52
19,C11G A15U U43C A45G,0.43
20,C11G A18C A21G A57G A64G,0.06
21,C11G A18G A21U A45U C59A,0.17
22,C11G A18G A21U A64G U78C,0.07
23,C11G A18G A28G U43G,0.06
24,C11G A18G C32A U78C,0.08

row,Variant,self-cleavage
1,C11G A18G U26C A45G G70A,0.06
2,C11G A18G U48C A57G U58C,0.03
3,C11G A18U U26C U41C U49A A56G,0.04
4,C11G A18U U31A A57G A75G,0.06
5,C11G A20C C23U G63A A64G A77U,0.04
6,C11G A20G A35U U69A,0.16
7,C11G A20U A28G U41C,0.04
8,C11G A20U C39A U49A U51C,0.2
9,C11G A21G U26A A56G A57U,0.36
10,C11G A21G U41C A65G,0.07
11,C11G A21G U72C,0.3
12,C11G A28G A35U U41A,0.26
13,C11G A28G C40U U41C G53A U54C A65G,0.03
14,C11G A28G C81U,0.19
15,C11G A28G U72C U80A,0.75
16,C11G A35G A57G A77G,0.26
17,C11G A35U A45G U78C,0.08
18,C11G A35U U60C U78C,0.23
19,C11G C14U C32U U58C U67A,0.07
20,C11G C14U C37G,0.13
21,C11G C14U G19A U25G U78A,0.11
22,C11G C17U U48C U51C A56G,0.06
23,C11G C23G A28G U49C U78C,0.05
24,C11G C27U A45G U60A,0.18

row,Variant,self-cleavage
1,C11G C32U C71U U74C,0.04
2,C11G C34A U80A,0.06
3,C11G C37U C40A A64G A77G,0.04
4,C11G C38U A64U A65G,0.07
5,C11G C38U U49C,0.08
6,C11G C44A U78C,0.35
7,C11G C50A U67C,0.23
8,C11G G24U G30A G33A U49C A65G U80C,0.09
9,C11G G30U C38A,0.05
10,C11G G46A A47G U48C,0.29
11,C11G U25A C38A C40U G70C U72A U80C,0.02
12,C11G U25C C34G C50U,0.07
13,C11G U25C U48C,0.25
14,C11G U26A C39A U49G U67G,0.03
15,C11G U26A C40G U41C A65G,0.06
16,C11G U26A U31C A56U U67A U80C,0.05
17,C11G U26A U48C U69G U72A,0.04
18,C11G U26A U58C U72C,0.09
19,C11G U26A U80A,0.19
20,C11G U26C A35G U78C,0.27
21,C11G U26C U41A,0.06
22,C11G U26C U41G U49C U54A U67A,0.05
23,C11G U26C U49C U67A U72C U80C,0.03
24,C11G U31C A35G U67A,0.34

row,Variant,self-cleavage
1,C11G U31C A56G U60C U72A,0.09
2,C11G U31C U41A A75G,0.04
3,C11G U41A G46A A47G U69A,0.21
4,C11G U41C A56U U69A U74C C81A,0.11
5,C11G U41C A57G U66C U78C,0.05
6,C11G U48A C71G,0.19
7,C11G U49C A56G U67A,0.17
8,C11G U51A A57G,0.25
9,C11G U51C U80C,0.5
10,C11G U54C U58C U67C,0.08
11,C11G U67G A75U,0.09
12,C11G U67G U72C,0.17
13,C11U A13G A15G U60C U78C,0.04
14,C11U A13G A20G U26A C39A U69A,0.04
15,C11U A13G A35G A45G U80C,0.7
16,C11U A13G U25C,0.27
17,C11U A13U A64G,0.38
18,C11U A13U C62U U67C,0.13
19,C11U A13U U31G A65U,0.04
20,C11U A15G A21G U48C,0.2
21,C11U A15G A21G U51A G63C U72A U80C,0.1
22,C11U A15G C32A U48C U51C U78C,0.09
23,C11U A15G G42A A64U U72C U80A,0.05
24,C11U A15U A28U U43C A64G,0.14

row,Variant,self-cleavage
1,C11U A15U U41C,0.17
2,C11U A18C A56G,0.24
3,C11U A18G A21G C59A U66C,0.04
4,C11U A18G A35U U66A,0.17
5,C11U A18G C27G U51C,0.16
6,C11U A18G G24C U43C U72C,0.07
7,C11U A18G U25A,0.34
8,C11U A18G U66C,0.08
9,C11U A21G C23U U66C G70U,0.04
10,C11U A21G U25G U26A U49A A77G,0.2
11,C11U A28G A56G U67C,0.07
12,C11U A28G C79A,0.26
13,C11U A28G U41C U66C,0.07
14,C11U A28G U48C G63A,0.06
15,C11U A28U A47G,0.38
16,C11U A28U A47G G53A G63A,0.09
17,C11U A35G A65G G73U,1.26
18,C11U A35G U51G,1.17
19,C11U A35U U43C,0.46
20,C11U A45G A57G,0.23
21,C11U A45U A47U U49A U80A,0.18
22,C11U A45U U76C,0.39
23,C11U A57G G63A,0.27
24,C11U A57U U80C,0.13

row,Variant,self-cleavage
1,C11U A65G U80C,0.11
2,C11U C12A A13G U26C A35U A45G U78C,0.04
3,C11U C12U U43C A57G U80C,0.43
4,C11U C17U A20U U31C C39A U51C,0.04
5,C11U C17U C32A,0.08
6,C11U C17U U67C G73A,0.04
7,C11U C27G A28G C32U A45G U49C U51A,0.01
8,C11U C38U U67A,0.07
9,C11U C40A G46U A56G,0.16
10,C11U C40U A45G,0.11
11,C11U C62A U76C U78C,0
12,C11U G16A C39U U41A U48C A65G U67G,0.07
13,C11U G16U U31C,0.04
14,C11U G30U C37U U48C U60C U66C U67C,0.2
15,C11U G30U C37U U48C U66C,0.18
16,C11U G33A A57G A65G,0.14
17,C11U U25C A28U U54A A75G,0.03
18,C11U U25C A35U U60A,0.06
19,C11U U25C A35U U74A,0.04
20,C11U U25C U26C,0.45
21,C11U U25C U49A,0.05
22,C11U U26A A47G,0.26
23,C11U U26A G36A U51C,0.29
24,C11U U26C A75G U80A,0.16

row,Variant,self-cleavage
1,C11U U26C C40G U41C C59U,0.05
2,C11U U26C U69A,0.28
3,C11U U31A A35G A45G U54C,0.9
4,C11U U31C U41C A47G U51C U60C,0.15
5,C11U U41A A64U U78A,0.02
6,C11U U41A U48C U54C A65G,0.13
7,C11U U41A U49C,0.07
8,C11U U41G U54A,0.07
9,C11U U43C U69A U78C,0.07
10,C11U U48C A56G A65U,0.04
11,C11U U49A U60A U74C,0.06
12,C11U U49C A56G U69A A75G,0.15
13,C11U U49C U69C,0.08
14,C11U U51A U54C A56G,0.11
15,C11U U60C U66A U69C A77U,0.13
16,C12A A13G A15C C23U U69C U72C U78C,0.06
17,C12A A13G A15G U41C U51A U67C U74A,0.11
18,C12A A13G A21G U26A A28G U51G G61A,0.04
19,C12A A13G C27G C62G U74C,0.06
20,C12A A13G C29G,0.08
21,C12A A13G G19A U26A A57G U69A U72C,0.03
22,C12A A13U A15G C39A A56G U60A,0.22
23,C12A A13U U48G U51C U78A,0.62
